Test results reported in the supplement of paper PMC10126150.
Sequences with one replicate were seen in a single cluster, so their values are uncertain.

Test system: ATP
Test: switch fluorescence ratio, 500 uM ATP over buffer (Cy3 cluster intensity, sum of 5 cycles each) (fold (ratio)); higher = stronger signal-on switching upon ATP binding; sequences stand for … in TCGTCGGCAGCGTCAGATGTGTATAAGAGACAGTTTTTTTTTTTTTTTTTTTTTTTTT…TC
Details: aptamer strand: ATP DNA aptamer (quencher-CACCTGGGGGAGTATTGCGGAGGAAGG + anchor), 100 nM annealed; ATP concentration: 500 uM; one replicate
Outline: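 After annealing to 100 nM quencher-labelled ATP aptamer, Cy3-labelled switching-strand clusters on a modified Illumina MiSeq flow-cell were imaged in selection buffer. A second image followed after 15 min with 500 uM ATP at 22 °C, and five such buffer/ATP cycles were done, each separated by NaOH stripping and re-annealing. The fluorescence ratio, averaged per switch-domain sequence, is summed target-cycle over summed buffer-cycle Cy3 intensity per cluster, with clusters outside 100-1000 RFU excluded.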
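Further: ATP exposure 15 min at 22 °C before imaging.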

## ACTGTAGGCT
  switch fluorescence ratio: 1.09

## TGACTCCTTA
  switch fluorescence ratio: 1.03

## CTGTGGAAGC
  switch fluorescence ratio: 1.02

## CTGATGGGGG
  switch fluorescence ratio: 0.99

## GGTTACGGAG
  switch fluorescence ratio: 0.996

## TCCCTTCTTA
  switch fluorescence ratio: 0.997

## ATATTACCGC
  switch fluorescence ratio: 1.11

## AAATGAGGCA
  switch fluorescence ratio: 0.999

## ATGCTGCACC
  switch fluorescence ratio: 1.05

## ACGGGGTTAT
  switch fluorescence ratio: 0.983

## CGGACTTCCT
  switch fluorescence ratio: 1.49

## TCATCCGTTG
  switch fluorescence ratio: 1.81

## CATTAGGGTG
  switch fluorescence ratio: 1.08

## GGTAAGTGTA
  switch fluorescence ratio: 0.96

## GCGGCACTGG
  switch fluorescence ratio: 1.06

## CCTGCGTAAT
  switch fluorescence ratio: 4.39

## TGCGACAGAC
  switch fluorescence ratio: 1.09

## CGTTAGCCTC
  switch fluorescence ratio: 1.01

## AGTGGGCAC
  switch fluorescence ratio: 0.966

## TTAAATACTG
  switch fluorescence ratio: 1.39

## CCTTATGTAA
  switch fluorescence ratio: 1.17

## TCAACTTGTA
  switch fluorescence ratio: 0.975

## ATAGATATAA
  switch fluorescence ratio: 1.01

## TTCGATACGC
  switch fluorescence ratio: 1.02

## GACCCCTAAC
  switch fluorescence ratio: 1.11

## ATGATATAGC
  switch fluorescence ratio: 1.01

## GTACCATCTA
  switch fluorescence ratio: 1.01

## ACCGCTACGT
  switch fluorescence ratio: 1.38

## GGTGTGTGAA
  switch fluorescence ratio: 1.03

## ACCGCAACGA
  switch fluorescence ratio: 1.49

## CCCATCGGT
  switch fluorescence ratio: 0.989

## CCCTAGGCAC
  switch fluorescence ratio: 1.13

## TATAAAAA
  switch fluorescence ratio: 1.01

## ACAACCAGAC
  switch fluorescence ratio: 1.57

## TAAACC
  switch fluorescence ratio: 1.08

## CTAATAAGGC
  switch fluorescence ratio: 1.05

## AGGGCGGGCC
  switch fluorescence ratio: 0.989

## CATTCTCGCT
  switch fluorescence ratio: 1.05

## TCCCATCGAG
  switch fluorescence ratio: 1

## CAGCCAGACT
  switch fluorescence ratio: 1.14

## TGGCACGTCG
  switch fluorescence ratio: 1.1

## AGTCTGTGGT
  switch fluorescence ratio: 0.937

## TCGTACCGTA
  switch fluorescence ratio: 0.937

## CCAGTGCTAT
  switch fluorescence ratio: 1.24

## CTATATGCGC
  switch fluorescence ratio: 0.969

## AATCTGGTG
  switch fluorescence ratio: 1.1

## TCATTGCGAA
  switch fluorescence ratio: 1.04

## TATCGGTCCT
  switch fluorescence ratio: 0.983

## CTATAACGGC
  switch fluorescence ratio: 0.959

## ACTTTTCTG
  switch fluorescence ratio: 1.02

## GGTTCGGCCC
  switch fluorescence ratio: 1.01

## TCCCGTGAGC
  switch fluorescence ratio: 1.11

## CCTGTCTGTT
  switch fluorescence ratio: 1

## GCTAGTTGAT
  switch fluorescence ratio: 1

## TCGAGTGCAG
  switch fluorescence ratio: 0.972

## CCTTGTGCTG
  switch fluorescence ratio: 1.05

## GCCTGGAAGA
  switch fluorescence ratio: 0.974

## ATATATTGGA
  switch fluorescence ratio: 0.992

## AGACAGCAAG
  switch fluorescence ratio: 0.955

## GAGGGGTATA
  switch fluorescence ratio: 1.02

## AACTAGGCAA
  switch fluorescence ratio: 1

## GCCTTGAAAT
  switch fluorescence ratio: 1.05

## GGGGCACCTA
  switch fluorescence ratio: 0.996

## AGCGACCGGC
  switch fluorescence ratio: 1.01

## ATCCTGACAT
  switch fluorescence ratio: 1.01

## AGTGTAGTCC
  switch fluorescence ratio: 0.989

## CTCGTCATGG
  switch fluorescence ratio: 1.01

## GGTTTACTCT
  switch fluorescence ratio: 0.978

## TCCATCACCG
  switch fluorescence ratio: 1.02

## GCGGATGAAG
  switch fluorescence ratio: 1.1

## TACTCAGGGG
  switch fluorescence ratio: 1.01

## CCTGTTAGAG
  switch fluorescence ratio: 0.987

## GTAAATAAGT
  switch fluorescence ratio: 0.974

## ACTTTTTCCC
  switch fluorescence ratio: 1.05

## TCGTCTTGGT
  switch fluorescence ratio: 1

## TTATTCAACA
  switch fluorescence ratio: 0.987

## AAAGGTGTCA
  switch fluorescence ratio: 1.06

## CGGATTTACA
  switch fluorescence ratio: 0.974

## CCGGAGATG
  switch fluorescence ratio: 1.88

## AAGTCTGTTG
  switch fluorescence ratio: 0.991

## GTCAGACCTG
  switch fluorescence ratio: 1.02

## TATGTAAGTC
  switch fluorescence ratio: 0.997

## ACCACGGCAC
  switch fluorescence ratio: 1.77

## TGGGATTGGT
  switch fluorescence ratio: 0.966

## ATCACGGTAG
  switch fluorescence ratio: 0.972

## GGTAAAGTGG
  switch fluorescence ratio: 1

## TATGACACT
  switch fluorescence ratio: 1.04

## AGGGTGTACA
  switch fluorescence ratio: 0.931

## TAATATAGCA
  switch fluorescence ratio: 1.02

## TGAGGGTGT
  switch fluorescence ratio: 1.12

## GTTATGATAC
  switch fluorescence ratio: 1.05

## AATCGTCTCG
  switch fluorescence ratio: 1

## CCGCTTTTAA
  switch fluorescence ratio: 2.84

## CTGACTGGG
  switch fluorescence ratio: 1.06

## CGTAACGCCT
  switch fluorescence ratio: 0.985

## CAAAGTGGCT
  switch fluorescence ratio: 0.958

## GTCAGACGCC
  switch fluorescence ratio: 1.1

## GGGCGCTTGT
  switch fluorescence ratio: 1.01

## GGGCAAATTT
  switch fluorescence ratio: 1.02

## GTTTAACGAA
  switch fluorescence ratio: 0.974

## TGGAGGCTTC
  switch fluorescence ratio: 0.968

## AATTTTAGGG
  switch fluorescence ratio: 0.926

## ACGACTGATG
  switch fluorescence ratio: 1.06

## ATTACAGAAA
  switch fluorescence ratio: 1.07

## GGTTATCGTT
  switch fluorescence ratio: 0.998

## TGATAAATCG
  switch fluorescence ratio: 1.03

## GAGGTCAAAC
  switch fluorescence ratio: 1.12

## ATGACCCACG
  switch fluorescence ratio: 1.14

## TAGGTCCGCC
  switch fluorescence ratio: 0.989

## CGAGACGGGT
  switch fluorescence ratio: 0.961

## GGGTCGCGCT
  switch fluorescence ratio: 0.98

## TATGAAGCGT
  switch fluorescence ratio: 0.971

## TCGCCGGATC
  switch fluorescence ratio: 1.05

## GTGTCGCAGA
  switch fluorescence ratio: 0.945

## CTATTCAATG
  switch fluorescence ratio: 1.04

## GAGGATTGAT
  switch fluorescence ratio: 0.979

## AGAGTAGCGG
  switch fluorescence ratio: 1.09

## GACGTAGGTG
  switch fluorescence ratio: 1.02

## TCCACCAGCA
  switch fluorescence ratio: 2.59

## CGTTGTAAGT
  switch fluorescence ratio: 0.981

## GGGGCCACT
  switch fluorescence ratio: 0.956

## TTTAAAAATC
  switch fluorescence ratio: 0.996

## ACGCTTGATT
  switch fluorescence ratio: 1.22

## TTTGAGCGCG
  switch fluorescence ratio: 1.01

## AAAAGTATTC
  switch fluorescence ratio: 0.965

## GTTTAAGGG
  switch fluorescence ratio: 0.973

## CCGATTTGGG
  switch fluorescence ratio: 0.968

## GGCTTGAATT
  switch fluorescence ratio: 0.958

## ATGAGACTGT
  switch fluorescence ratio: 0.988

## TTTGTGCGGC
  switch fluorescence ratio: 1.05

## AACGGGTCTT
  switch fluorescence ratio: 1.03

## AGCTACTTTA
  switch fluorescence ratio: 1.09

## GTGACCCTGT
  switch fluorescence ratio: 0.97

## TAAAGGTATT
  switch fluorescence ratio: 1.05

## CACCAGCGTA
  switch fluorescence ratio: 1.04

## TTTTCCTTGA
  switch fluorescence ratio: 0.993

## AAATGGGTT
  switch fluorescence ratio: 0.999

## AAGCCATCTA
  switch fluorescence ratio: 1.03

## AGGGAAGATG
  switch fluorescence ratio: 0.99

## GCTATACTTA
  switch fluorescence ratio: 1.19

## TTTGGTGCGA
  switch fluorescence ratio: 0.982

## GCCGGCGATG
  switch fluorescence ratio: 1.02

## CCCATATATA
  switch fluorescence ratio: 1.01

## CCAGTTAGAT
  switch fluorescence ratio: 0.966

## GCACCCGCCC
  switch fluorescence ratio: 1.24

## CCTTTGCTCT
  switch fluorescence ratio: 1.4

## GGTAGTTGAT
  switch fluorescence ratio: 0.988

## GGGTAACTTG
  switch fluorescence ratio: 0.995

## ACGACGCAGG
  switch fluorescence ratio: 2.17

## CTTAGGGCTT
  switch fluorescence ratio: 0.962

## TAATAGAACT
  switch fluorescence ratio: 1.01

## GTGTAACAAG
  switch fluorescence ratio: 1.03

## TTCCTAAGTT
  switch fluorescence ratio: 1.02

## AATTCTACTA
  switch fluorescence ratio: 1.03

## CGAGTAATAG
  switch fluorescence ratio: 2.62

## GGATGTGACT
  switch fluorescence ratio: 0.989

## AGGTATACAT
  switch fluorescence ratio: 0.997

## CAAGTCAACG
  switch fluorescence ratio: 1.04

## TGGACACTTC
  switch fluorescence ratio: 0.983

## ACATGAGATG
  switch fluorescence ratio: 1.01

## GACGAACGGG
  switch fluorescence ratio: 1.28

## AAGGAGGAGA
  switch fluorescence ratio: 0.994

## TGTACTCACG
  switch fluorescence ratio: 1.48

## GCTGGGGATC
  switch fluorescence ratio: 0.983

## GAGCCCCCAA
  switch fluorescence ratio: 1.13

## TTTCTCAGCG
  switch fluorescence ratio: 0.996

## GCGCGGTTTC
  switch fluorescence ratio: 1.04

## CAACACCGCT
  switch fluorescence ratio: 1.18

## TATAGGGA
  switch fluorescence ratio: 0.986

## CGAGTGAGAA
  switch fluorescence ratio: 0.967

## TGATTTCCGG
  switch fluorescence ratio: 0.975

## TTAGAGGCAC
  switch fluorescence ratio: 1.03

## ATTCATTGAC
  switch fluorescence ratio: 1.02

## CAAGCTGTTG
  switch fluorescence ratio: 0.947

## ATAATGATAA
  switch fluorescence ratio: 1.03

## GGCCATAAGG
  switch fluorescence ratio: 1.02

## CGACCTGGGT
  switch fluorescence ratio: 1.04

## TTAGTTCGCG
  switch fluorescence ratio: 1.01

## GACGCAACT
  switch fluorescence ratio: 3.52

## GTAACTGTGT
  switch fluorescence ratio: 1.02

## GGGATATCTA
  switch fluorescence ratio: 1.02

## AAATAGTCTT
  switch fluorescence ratio: 0.999

## TGCTACAT
  switch fluorescence ratio: 1.05

## CAATATTGAT
  switch fluorescence ratio: 0.95

## TTCCGGGTCT
  switch fluorescence ratio: 0.997

## TTATAACAAA
  switch fluorescence ratio: 1.01

## CTGAGATAG
  switch fluorescence ratio: 1.03

## TCGGAGTTGT
  switch fluorescence ratio: 1.06

## CTCCACGCGC
  switch fluorescence ratio: 2

## GTCATGGGTA
  switch fluorescence ratio: 0.957

## CCATGCTGCT
  switch fluorescence ratio: 1.03

## GTCGACTTGG
  switch fluorescence ratio: 1.05

## AGGGTTGTGG
  switch fluorescence ratio: 0.976

## TTACATCAGG
  switch fluorescence ratio: 1.09

## AGGGTTGCCT
  switch fluorescence ratio: 0.956

## TGCACGATGT
  switch fluorescence ratio: 1.04

## GTAGTGGGAA
  switch fluorescence ratio: 0.973

## CCCAGAAGGT
  switch fluorescence ratio: 1.06

## TTATGTTAT
  switch fluorescence ratio: 1.02

## GGTGGGGCAA
  switch fluorescence ratio: 1.06

## TACGTTGGTG
  switch fluorescence ratio: 1.04
